# Measured values from article PMC4336329 (PLoS ONE, 2015).
# In all, about 310,000 compounds went through this assay and about 2,200 (0.71%) showed an effect of 50% or more. The effect is printed as a negative number. Some of the results follow.
# Biological target: human ether-à-go-go-related gene (hERG) potassium channel (human, UniProt Q12809)
# Test: primary screen, population patch clamp on CHO cells stably expressing hERG
# Chain of human ether-à-go-go-related gene (hERG) potassium channel (Q12809 whole entry, looked up): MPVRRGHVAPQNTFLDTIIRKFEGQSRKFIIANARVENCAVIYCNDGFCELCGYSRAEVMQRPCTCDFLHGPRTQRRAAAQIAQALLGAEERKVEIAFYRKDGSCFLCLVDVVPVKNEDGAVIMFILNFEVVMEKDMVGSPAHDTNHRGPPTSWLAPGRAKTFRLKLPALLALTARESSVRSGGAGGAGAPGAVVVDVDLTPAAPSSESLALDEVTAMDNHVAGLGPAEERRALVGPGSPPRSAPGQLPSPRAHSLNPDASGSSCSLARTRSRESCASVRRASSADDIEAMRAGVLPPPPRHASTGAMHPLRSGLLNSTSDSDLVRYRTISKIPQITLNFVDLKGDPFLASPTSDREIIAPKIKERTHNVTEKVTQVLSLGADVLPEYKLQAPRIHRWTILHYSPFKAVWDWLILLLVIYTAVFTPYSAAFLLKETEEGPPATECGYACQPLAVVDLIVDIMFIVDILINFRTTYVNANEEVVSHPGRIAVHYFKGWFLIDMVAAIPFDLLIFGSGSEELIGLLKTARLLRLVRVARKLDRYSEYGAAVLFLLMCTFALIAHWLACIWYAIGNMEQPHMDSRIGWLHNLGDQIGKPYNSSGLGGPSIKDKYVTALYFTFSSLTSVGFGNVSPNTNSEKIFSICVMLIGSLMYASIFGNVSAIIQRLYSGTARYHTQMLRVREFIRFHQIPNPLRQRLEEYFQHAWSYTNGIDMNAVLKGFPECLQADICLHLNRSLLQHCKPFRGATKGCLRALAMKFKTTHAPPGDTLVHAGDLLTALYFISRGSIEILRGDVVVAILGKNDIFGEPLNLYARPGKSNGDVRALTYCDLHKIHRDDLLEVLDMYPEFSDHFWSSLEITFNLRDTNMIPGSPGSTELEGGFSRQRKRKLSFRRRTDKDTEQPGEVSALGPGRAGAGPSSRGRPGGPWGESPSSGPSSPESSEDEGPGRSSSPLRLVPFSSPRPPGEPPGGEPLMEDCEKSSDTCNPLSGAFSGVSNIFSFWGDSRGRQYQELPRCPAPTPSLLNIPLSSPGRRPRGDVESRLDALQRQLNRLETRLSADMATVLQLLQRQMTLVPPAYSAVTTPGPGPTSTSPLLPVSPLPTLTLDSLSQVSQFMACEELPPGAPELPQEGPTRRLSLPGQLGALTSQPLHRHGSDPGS
row,SMILES,"hERG current change (%, negative = inhibition) at 1uM [%]"
1,CN(CC(=O)Nc1cccc(F)c1)C(=O)C1(c2ccccc2)CC1,23.4
2,Cc1ccc(S(=O)(=O)NCC(=O)NCC(=O)N2CCC(C)CC2)cc1,10.8
3,COc1ccc(-c2cc(C(F)(F)F)n3nc(C(=O)N4CCOCC4)c(Cl)c3n2)cc1,-0.812
4,CC1=CC(C)C2C(=O)N(CCC[N+](C)(C)C)C(=O)C2C1.[I-] (stereo not drawn),12
5,CC(C)n1ncc2c(C(=O)Nc3cccc(S(=O)(=O)N(C)C)c3)cc(C3CC3)nc21,-0.375
6,COC(=O)c1ccc(CSc2nc3ccccc3c(=O)n2N)cc1,15.8
7,COc1ccc(/C=C2\N=C(C)OC2=O)cc1[N+](=O)[O-],11.3
8,O=C(Cc1ccc(Br)cc1)NC1CCCCC1,2.36
9,Cc1ccc(C)c(NC(=O)C2CCCC2)c1,15.5
10,Cc1occc1C(=O)N/N=C/c1sc(N2CCOCC2)nc1-c1ccccc1,7.26
11,O=C(c1cccs1)N1CCN(S(=O)(=O)N2CCCCC2)CC1,5.51
12,O=C(Cc1nnc(NC(=O)Nc2ccc(F)cc2)s1)NCc1ccccc1,12.7
13,CCN1CCN(c2ccc(S(=O)(=O)N3CCOCC3)cc2NC(=O)c2cc(Cl)nc3ccccc23)CC1,6.24
14,O=C(NC(=S)Nc1ccc2[nH]c(=O)[nH]c2c1)c1ccccc1Cl,14.4
15,C=C(C)C(=O)N1CC2(CC(c3cccc(NC(=O)/C=C\C=C/C)c3)=NO2)C[C@H]1C(N)=O (stereo partly drawn),7.43
16,CSC(=NCc1cccnc1)NS(=O)(=O)c1cccs1,11.7
17,O=C(Nc1ccc(C(=O)N2CCOCC2)cc1)c1cccs1,20.3
18,CN(c1ccc(OCC(=O)OCC(=O)Nc2ccccc2F)cc1)S(=O)(=O)c1cccs1,16.7
19,Cc1ccc(NC(=O)NCCCl)cc1S(=O)(=O)N1CCOCC1,9.2

row,SMILES,"hERG current change (%, negative = inhibition) at 1uM [%]"
1,C=C(C)CCOC(=O)C(CC(=O)O)NCc1ccco1 (stereo not drawn),11.8
2,COc1cccc(NC(=O)CN(C)C(C)C(=O)NC(=O)NC2CCCCC2)c1 (stereo not drawn),5.93
3,Cc1ccc(SCC(=O)OCC(=O)N(CC(C)C)c2c(N)n(Cc3ccccc3)c(=O)[nH]c2=O)cc1C,17.7
4,Cn1nnnc1SCC(=O)Nc1nc(-c2ccccc2)c(-c2ccccc2)o1,2.31
5,Cc1ccccc1-c1nc2ccccc2[nH]1,-4.77
6,Cc1c(CC(=O)N2CCN(C(=O)C3COc4ccccc4O3)CC2)c(=O)oc2cc(O)ccc12 (stereo not drawn),5.7
7,CCN1CCN(C(=O)c2ccccc2N(Cc2ccccc2)S(=O)(=O)c2ccc(C)cc2)CC1,-14.6
8,O=C(CSc1nc(=O)n(Cc2ccccn2)c2c1CCC2)Nc1ccc(F)cc1F,6.01
9,CCN1C(=O)C(=O)N(CC(=O)NC(C)CCc2ccccc2)C1=O (stereo not drawn),5.87
10,CCCC(C(=O)Nc1ccc(S(=O)(=O)N2CCCC2)cc1)c1ccccc1 (stereo not drawn),13.9
11,COC(=O)C(C)N(C#N)c1nc(C)cc(C)n1 (stereo not drawn),5.58
12,COCCN1Cc2cccc(C(=O)Nc3cccc(C)c3C)c2C1=O,1.38
13,O=C(Nc1ccc(N2CCOCC2)cc1)Nc1cnsn1,2.13
14,COc1ccc2c(c1OC)C(=O)N1N=C(c3ccccc3)CC21 (stereo not drawn),3.26
15,CC(C)CNc1cc(=O)n(C)c(=O)n1C,12.1
16,O=C(NCC1CCCO1)C(c1ccncc1)N(Cc1ccc(F)cc1)C(=O)CN1C(=O)c2ccccc2S1(=O)=O (stereo not drawn),-51.2
17,Cc1ccc(NC(=O)CSc2nccn2Cc2ccco2)c(C)c1,13.4
18,Cc1ccc(S(=O)(=O)Nc2c(O)c3ccccc3oc2=O)cc1C,14.6
19,O=C(NN1C(=O)c2ccccc2C1=O)C1CCCCC1,2.91

row,SMILES,"hERG current change (%, negative = inhibition) at 1uM [%]"
1,CCS(=O)(=O)Nc1ccc2c(c1)N(C(C)=O)c1ccccc1CC2,0.669
2,CCCOc1ccc(C2=CC(=O)C[C@H](c3ccc(OC)cc3)C2)cc1,20.2
3,CSc1nnc(C)c(=O)n1COC(=O)COc1ccccc1,14.4
4,O=C(Cn1[nH]c(=O)c2ccccc2c1=O)OCC(=O)c1ccc(F)cc1,15.2
5,CN(CC(=O)NC(=O)NCc1ccccc1)Cc1cccc(Cl)c1Cl,8.14
6,O=c1cc(CN2CCN(c3ccccc3)CC2)nc2scc(-c3ccccc3)n12,7.25
7,O=C(Nc1ccccc1)N1CCC(n2c(=O)[nH]c3ccccc32)CC1,3.01
8,CN(C)S(=O)(=O)c1cccc(C(=O)OCC(=O)Nc2ccccc2OC(F)F)c1,13.9
9,COC(=O)C(CC(C)C)NC(=O)c1ccc(F)cc1 (stereo not drawn),13
10,CCC(=O)Nc1cc2c(C)cc(=O)oc2cc1C,-0.915
11,C/C(=C\c1ccccc1)C(=O)n1nnc2ccccc21,6.05
12,COc1ccc(CC(=O)N2CCN(c3ccc(C4=NNC(=O)CC4C)cc3)CC2)cc1 (stereo not drawn),8.78
13,CCOC(=O)C1=C(COC(=O)/C=C/c2cccc(OC)c2)NC(=O)NC1C (stereo not drawn),6.4
14,CCCN(CCC)S(=O)(=O)c1cccc(-c2csc(C)n2)c1,-2.79
15,CC(=NCCN1CCOCC1)c1c(O)n(C2CCCCC2)c(=O)[nH]c1=O,-3.28
16,Cc1cc(NC(=O)Cc2c(F)cccc2Cl)no1,10.9
17,NS(=O)(=O)c1ccc(NC(=O)c2ccc(S(=O)(=O)N3CCOCC3)o2)cc1,13.9
18,COc1cccc(C(=O)NCC(=O)OCc2ccc(F)cc2Cl)c1,13.5
19,O=C(NCCN1CCOCC1)c1cccs1,3.28
